Assay results published in paper PMC6919601, “Identification of Plasmodium dipeptidyl aminopeptidase allosteric inhibitors by high throughput screening” (PLoS ONE, 2019).
Among all 110,000 compounds or so, about 230 (0.21%) showed an effect of 50% or more. This is one part of the list.

molecular target: DPAP1 (Plasmodium falciparum, UniProt Q8IIJ9); assay: primary screen, percent inhibition; read by cleavage of a fluorogenic dipeptide substrate; higher = more effect of the substance; parameters: species or system P. falciparum D10 trophozoite lysates; single well
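Further: 30 min substrate incubation versus DMSO and 10 µM JCP410 controls.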

Sequence of DPAP1 (Q8IIJ9 whole entry, looked up): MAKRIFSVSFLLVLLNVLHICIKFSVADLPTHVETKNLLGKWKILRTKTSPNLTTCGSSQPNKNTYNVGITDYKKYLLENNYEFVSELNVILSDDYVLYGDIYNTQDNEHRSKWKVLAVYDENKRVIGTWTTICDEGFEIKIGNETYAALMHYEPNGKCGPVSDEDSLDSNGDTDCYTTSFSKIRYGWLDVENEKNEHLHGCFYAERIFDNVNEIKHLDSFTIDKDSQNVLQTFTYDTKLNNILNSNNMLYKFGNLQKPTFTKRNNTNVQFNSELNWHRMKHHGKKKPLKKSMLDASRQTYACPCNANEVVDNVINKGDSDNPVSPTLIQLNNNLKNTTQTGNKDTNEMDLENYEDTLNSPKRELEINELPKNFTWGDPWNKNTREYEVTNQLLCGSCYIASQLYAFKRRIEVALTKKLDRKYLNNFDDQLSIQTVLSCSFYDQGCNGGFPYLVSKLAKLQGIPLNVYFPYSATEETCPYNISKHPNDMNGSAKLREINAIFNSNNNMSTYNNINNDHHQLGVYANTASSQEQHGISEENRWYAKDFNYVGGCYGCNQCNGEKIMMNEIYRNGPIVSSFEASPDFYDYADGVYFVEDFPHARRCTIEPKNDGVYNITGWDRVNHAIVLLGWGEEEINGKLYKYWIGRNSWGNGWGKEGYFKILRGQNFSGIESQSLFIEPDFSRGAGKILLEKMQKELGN

| Structure (SMILES) | % Inhibition @ 10 uM [%] |
| --- | --- |
| CC1CCN(C(=O)CN(c2ccc3c(c2)OCCO3)S(=O)(=O)c2ccccc2)CC1 | -4.49 |
| CC1CCN(CCCCOc2cccc(C(C)C)c2)CC1 | 3.87 |
| COC(=O)c1cc(S(=O)(=O)N2CCC(c3cc(OC)ccc3OC)C2)c[nH]1 (stereo not drawn) | -1.01 |
| Cc1ccc(N/C=C(\C#N)C(=O)NC(=O)c2ccccc2)cc1 | -4.75 |
| CCN1CCC2(CC1)OC(=O)C(C)=C2C(=O)NCCc1cccs1 | 0.56 |
| Cn1nccc1C(=O)C#Cc1ccccc1 | 2.55 |
| O=C(c1ccc(F)cc1)N1CCN(Cc2ccccc2)CC1 | -0.582 |
| COc1cc(C(C)=O)ccc1OCC(O)CN1CCN(c2ccccc2)CC1 (stereo not drawn) | 0.161 |
| COc1ccc(CCNC(=O)C(Cc2ccccc2)NS(=O)(=O)c2cccs2)cc1OC (stereo not drawn) | -0.228 |
| CN(C)C(=O)c1ccc(N/C=C2/C(=O)NC(=O)N(c3ccccc3)C2=O)cc1 | -2.89 |
| COC(=O)C1=C(C)NC(=O)CC1c1cc(Br)ccc1F (stereo not drawn) | 3.25 |
| CC1CN(Cc2ccc(F)c(F)c2)CC(C)O1 (stereo not drawn) | -3.8 |
| N#CCNC(=O)[C@H](Cc1ccc(F)cc1)NC(=O)c1ccccc1 | -1.83 |
| COc1ccc(-c2cc3nc(C)c(CCC(=O)N4CCC5(CC4)OCCO5)c(C)n3n2)c(OC)c1 | 2.93 |
| O=C(O)CCCN1C(=O)C2C3CC(C2C1=O)C1C(c2cccnc2)c2sc(O)nc2SC31 (stereo not drawn) | 4.8 |
| COc1ccccc1/C=c1\sc2nc(-c3ccccc3C)nn2c1=O | 2.24 |
| O=C(Nc1ccc2c(c1)OCCO2)c1sc2cc(F)ccc2c1Cl | -5.79 |
| CC(C)CCn1c(=O)c2ccccc2n2c(CCC(=O)NCc3ccco3)nnc12 | 8.05 |
| Cc1cc(Cl)ccc1OCC(O)CN1CCN(c2ccccc2F)CC1 (stereo not drawn) | 3.43 |
| CCOc1ccccc1-n1nnc(C(=O)OC)c1C(=O)OC | -1.58 |
| CCCN(CC1CC1)C1CCN(C(=O)OCC)CC1 | -0.0908 |
| CCOc1cc(C2C(C(=O)c3ccc(C)cc3)=C(O)C(=O)N2c2nncs2)ccc1O (stereo not drawn) | -0.178 |
| COc1ccccc1N1CCN(CC(O)COc2ccccc2F)CC1 (stereo not drawn) | -0.478 |
| CCN1CCCC1CNC(=O)c1cnc(SC)nc1-c1ccccc1 (stereo not drawn) | 1.77 |
| Cc1ccc(-n2ncc(C(=O)N3CCCCC3CCO)c2NC(=O)c2ccco2)cc1C (stereo not drawn) | -5.13 |

| Structure (SMILES) | % Inhibition @ 10 uM [%] |
| --- | --- |
| CCCCOC(=O)/C(C#N)=C/c1ccc(-c2ccccc2)o1 | 5.59 |
| CCOc1ccc(-c2cc(C(=O)NCC3CCCO3)c3cc(C)ccc3n2)cc1 (stereo not drawn) | 2.08 |
| Cc1ccc2oc(/C=C/c3nc4cc(C)ccc4o3)nc2c1 | -0.546 |
| CCCCOc1ccc(Nc2nc(-c3ccccc3)cc(-c3ccccc3)n2)cc1 | 6.6 |
| Cc1ccc(C(=O)O)c(C(=O)Nc2sc3c(c2C#N)CCC(C)C3)c1 (stereo not drawn) | 3.05 |
| O=C1C(Cl)=C(Nc2ccc(F)cc2)C(=O)N1c1ccccc1 | -1.37 |
| COc1cccc(NC(=O)CN(c2cccc(Cl)c2)S(C)(=O)=O)c1 | -1.95 |
| CS(=O)(=O)N(CC(=O)NCc1ccc(Cl)cc1Cl)C1CCCCC1 | -0.992 |
| CNc1cc(C)nc(-c2ccc(Br)cc2)n1 | -4.15 |
| Cc1ccc(Cn2c(C)c3cnn(CC(=O)NCCN4CCN(C)CC4)c(=O)c3c2C)cc1 | 1.22 |
| Cc1cc(C)n(-c2cc(Oc3ccccc3)nc(C)n2)n1 | 2.03 |
| Cn1c(C(=O)N2CCN(C(=O)c3ccco3)CC2)cc2sccc21 | -4.85 |
| Cc1ccc(OCC(=O)Nc2ccccc2)cc1 | -0.116 |
| O=C(NCc1ccccc1Cl)c1cc(-c2ccccc2)c(N2CCOCC2)s1 | -2.83 |
| CC(=O)Nc1ccc(NC(=O)COc2ccc(Cl)cc2Cl)cc1 | 1.33 |
| O=C(CN1C(=O)S/C(=C/c2cc3c(cc2Br)OCO3)C1=O)Nc1ccccc1F | -1.43 |
| CCN1C(=O)c2ccc(C(=O)c3ccc(C(=O)O)cc3)cc2C1=O | -7.14 |
| CCN1CCC(NCC(c2ccccc2)c2ccccc2)CC1 | -5.44 |
| CC1(c2ccccc2)CC(C)(C)N(Cc2ccc([N+](=O)[O-])cc2)c2ccccc21 (stereo not drawn) | 1.35 |
| COc1ccc(S(=O)(=O)Nc2cccc(C(F)(F)F)c2)cc1 | 0.526 |
| COc1ccc(CN2CCN(C(=O)Cn3ncc4ccsc4c3=O)CC2)c(OC)c1OC | 9.33 |
| Cn1cccc1Cc1nnc(SCC(=O)NCC2CCCO2)n1-c1cccc(C(F)(F)F)c1 (stereo not drawn) | -4.97 |
| O=C(O)C1CCC(Cn2c(SCc3cc(=O)n4ccccc4n3)nc3ccsc3c2=O)CC1 (stereo not drawn) | 6.5 |
| O=C1C2CC=CCC2C(=O)N1c1ccc(OCc2ccccc2)cc1 (stereo not drawn) | 1.52 |
| CCC(=O)N1c2ccccc2N=C2CC(C)(C)CC(O)=C2C1c1cccc(OC)c1OC (stereo not drawn) | 4.07 |

| Structure (SMILES) | % Inhibition @ 10 uM [%] |
| --- | --- |
| O=C(NCCCN1CCOCC1)C1CC2CCC1C2 (stereo not drawn) | -3.27 |
| Fc1ccc(CN2CCN(c3ncccn3)CC2)cc1F | -3.72 |
| CC1=C(C#N)C(=O)N(CCc2ccccc2)C(=O)/C1=C/c1ccc(-c2ccc(S(N)(=O)=O)cc2)o1 | 0.884 |
| CC(C)C[C@@H](C(=O)NC1(C#N)CC1)c1cccc(-c2ccc(N3CCN(C(C)(C)C)CC3)cc2)c1 | -1.41 |
| CCOC(=O)/C=C/C1C[C@@H]1c1ccccc1 (stereo partly drawn) | 1.4 |
| Cn1c2ccccc2c2nnc(N3CCN(Cc4ccccc4)CC3)nc21 | -7.32 |
| O=C1C(=O)N(CN2CCc3ccccc3C2)c2ccc(Br)cc21 | 5.12 |
| CC1(C)CC2=Nc3ccccc3NC(c3cccc([N+](=O)[O-])c3)C2=C(O)C1 (stereo not drawn) | 3.74 |
| Cc1ccc(C2=CC(c3ccc(F)c(Br)c3)n3nnnc3N2)cc1 (stereo not drawn) | -7.32 |
| O=C(c1scc2c1CCCC2)N1CCOCC1 | 4.11 |
| COCCNC(=O)C1CCCN(c2nnc(-n3cccc3)s2)C1 (stereo not drawn) | -2.25 |
| CCn1cc(CNC(=O)c2cc3n(n2)C(C(F)(F)F)CC(c2ccco2)N3)c(C)n1 (stereo not drawn) | -0.958 |
| CCOCCCNC(=O)/C(C#N)=C/c1c(Oc2ccc(OC)cc2)nc2ccccn2c1=O | -1.86 |
| Cc1ccc(S(=O)(=O)NCCC(=O)NCCN2CCCCCC2)cc1 | -3.12 |
| O=C1NC2(CCN(C(=O)c3ccc4c(c3)OCO4)CC2)N=C1c1ccc(Cl)cc1 | 6.31 |
| O=C(CSc1ncnc2c1sc1ccccc12)NCc1ccccc1Cl | -0.406 |
| Cc1ccc(NC(=O)/C=N/O)c(C)c1 | 1.42 |
| Cc1n[nH]c(C)c1N1C(=O)c2cccc3c(Br)ccc(c23)C1=O | -3.83 |
| CN(C(=O)c1cc2ccccn2c1)c1ccccc1 | -2.65 |
| CC(C(=O)NCc1ccccn1)n1c2ccccc2c2cnnc(O)c21 (stereo not drawn) | 4.55 |
| Cc1cc(C)c2c(-n3cccc3)c(C(=O)N3CCN(Cc4ccccc4)CC3)sc2n1 | -1.3 |
| O=C(NC1CC1)c1ccc(CS(=O)(=O)c2c(Cl)cccc2Cl)o1 | 8.39 |
| CCOC(=O)C(/C=N/c1cccc(C)n1)=C(/O)OCC | -5.36 |
| Cc1ccc(S(=O)(=O)N(CC(=O)N2CCOCC2)c2ccc(C)c(C)c2)cc1 | 3.53 |
| O=C(c1ccc(O)cc1)c1ccc(C(=O)O)c(C(=O)O)c1 | -3.48 |

| Structure (SMILES) | % Inhibition @ 10 uM [%] |
| --- | --- |
| O=C1c2ccc(F)cc2C(=O)N1CCO | 0.912 |
| CCOc1ccc(CNC(=O)C2CC(=O)N(C3CCCC3)C2)cc1OC (stereo not drawn) | 3.79 |
| COc1ccc2c(c1OC)C(=O)N(c1cccc(F)c1)C2=O | -1.37 |
| CCOC(=O)c1cc(S(=O)(=O)N2CCN(C(=O)OCC)CC2)cn1C | -1.06 |
| CN(C)CCN(C)Cc1cccc(Cl)c1 | 1.83 |
| COC(=O)C1=CN(Cc2ccc(Cl)cc2)C=C(C(=O)OC)C1c1ccccc1OC(C)C | 4.99 |
| N#Cc1c(N)n(-c2cccc(S(N)(=O)=O)c2)c2nc3ccccc3nc12 | 3.31 |
| NC1=NC(=O)/C(=C\c2ccc(-c3ccc(Cl)c(Cl)c3)o2)S1 | 31.8 |
| COc1ccc(S(=O)(=O)N2CCCC2C(=O)O)cc1OC (stereo not drawn) | 3.65 |
| O=C(Nc1cnn(C23CC4CC(CC(C4)C2)C3)c1)C1CC(c2c(F)cccc2Cl)=NO1 (stereo not drawn) | 5.12 |
| CN1C2CCC1CC(OC(=O)CCN1CCCCC1)C2 (stereo not drawn) | -0.687 |
| Cc1ccc(C(=O)Nc2ccccc2O)cc1 | 0.135 |
| CC(C)N(CCCNC(=O)Nc1cn(C)c(=O)c2ccccc12)Cc1ccccc1 | 5.12 |
| CCC(CC)CC(NC(=O)c1ccc(C(C)(C)C)cc1)C(=O)NCC#N (stereo not drawn) | -3.04 |
| COc1cc(/C=C(\C#N)c2[nH]nc(N)c2C#N)ccc1O | -0.995 |
| Cc1ccc(S(=O)(=O)Cc2nc(-c3ccc(C(=O)NC(C)c4ccccc4)cc3)oc2C)cc1 (stereo not drawn) | 0.107 |
| CCn1ncc(Br)c1C(=O)Nc1ccc(S(=O)(=O)Nc2ccc(OC)cc2)cc1 | -4.43 |
| COc1ccc(C)cc1N(CC(N)=O)S(=O)(=O)c1ccc(C)cc1 | 0.189 |
| COCCCNC(=O)c1ccc(CS(=O)c2ccccc2Cl)o1 (stereo not drawn) | -0.716 |
| Cc1c(CNC(=O)c2cccc(Br)c2)cnn1C | 4.49 |
| Cc1ccc(-c2onc(C)c2C)cc1S(=O)(=O)N1CCOCC1 | -4.51 |
| CCCCc1nc2ccccc2c(=O)n1-c1ccc(OC)cc1 | 4.67 |
| CCOc1ccc(NC2OC(CO)C(O)C2O)c([N+](=O)[O-])c1 (stereo not drawn) | 6.31 |
| COc1ccc(CN2CCN(Cc3cccc(C)c3)CC2)c(OC)c1OC | 53.3 |
